According to the supplement of paper PMC8728848:
This is one part of the list.

Legend:
Test in all cases: glycan array binding signal (z-score within array); higher = stronger binding
Conditions in all cases: glycan notation: IUPAC condensed, linker removed
Gal(b1-4)Glc = target: Gal(b1-4)Glc
Summary of the method: (§1)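 Negative Z-scores can be read as non-binding. The Z-score is calculated within each array and then averaged across arrays of one protein sequence at different concentrations or buffers and across linkers. Arrays, 3228 in all, were curated from the Consortium for Functional Glycomics database and kept only where the protein sequence was available.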

Gal(b1-4)Glc6S = target: Gal(b1-4)Glc6S
Summary of the method: as §1

Gal(b1-4)GlcNAc = target: Gal(b1-4)GlcNAc
Summary of the method: as §1

[1] = target: Gal(b1-4)GlcNAc(a1-6)Gal(b1-4)GlcNAc
Summary of the method: as §1

Gal(b1-4)GlcNAc(b1-2)Man = target: Gal(b1-4)GlcNAc(b1-2)Man
Summary of the method: as §1

[2] = target: Gal(b1-4)GlcNAc(b1-2)Man(a1-3)Man(b1-4)GlcNAc(b1-4)GlcNAc
Summary of the method: as §1

[3] = target: Gal(b1-4)GlcNAc(b1-2)Man(a1-3)[Gal(b1-4)GlcNAc(b1-2)Man(a1-6)]Man(b1-4)GlcNAc(b1-4)GlcNAc
Summary of the method: as §1

[4] = target: Gal(b1-4)GlcNAc(b1-2)Man(a1-3)[Gal(b1-4)GlcNAc(b1-2)Man(a1-6)]Man(b1-4)GlcNAc(b1-4)[Fuc(a1-6)]GlcNAc
Summary of the method: as §1

[5] = target: Gal(b1-4)GlcNAc(b1-2)Man(a1-3)[Gal(b1-4)GlcNAc(b1-2)Man(a1-6)][Gal(b1-4)GlcNAc(b1-4)]Man(b1-4)GlcNAc(b1-4)[Fuc(a1-6)]GlcNAc
Summary of the method: as §1

[6] = target: Gal(b1-4)GlcNAc(b1-2)Man(a1-3)[Gal(b1-4)GlcNAc(b1-2)Man(a1-6)][GlcNAc(b1-4)]Man(b1-4)GlcNAc(b1-4)[Fuc(a1-6)]GlcNAc
Summary of the method: as §1

[7] = target: Gal(b1-4)GlcNAc(b1-2)Man(a1-3)[GlcNAc(b1-2)Man(a1-6)]Man(b1-4)GlcNAc(b1-4)GlcNAc
Summary of the method: as §1

[8] = target: Gal(b1-4)GlcNAc(b1-2)Man(a1-3)[GlcNAc(b1-4)][Gal(b1-4)GlcNAc(b1-2)Man(a1-6)]Man(b1-4)GlcNAc(b1-4)GlcNAc
Summary of the method: as §1

[9] = target: Gal(b1-4)GlcNAc(b1-2)Man(a1-3)[Man(a1-6)]Man(b1-4)GlcNAc(b1-4)GlcNAc
Summary of the method: as §1

[10] = target: Gal(b1-4)GlcNAc(b1-2)Man(a1-6)Man(b1-4)GlcNAc(b1-4)GlcNAc
Summary of the method: as §1

[11] = target: Gal(b1-4)GlcNAc(b1-2)Man(a1-6)[GlcNAc(b1-2)Man(a1-3)]Man(b1-4)GlcNAc(b1-4)GlcNAc
Summary of the method: as §1

[12] = target: Gal(b1-4)GlcNAc(b1-2)Man(a1-6)[Man(a1-3)]Man(b1-4)GlcNAc(b1-4)GlcNAc
Summary of the method: as §1

[13] = target: Gal(b1-4)GlcNAc(b1-2)[Gal(b1-4)GlcNAc(b1-4)]Man(a1-3)[Gal(b1-4)GlcNAc(b1-2)Man(a1-6)]Man(b1-4)GlcNAc(b1-4)GlcNAc
Summary of the method: as §1

[14] = target: Gal(b1-4)GlcNAc(b1-2)[Gal(b1-4)GlcNAc(b1-4)]Man(a1-3)[Gal(b1-4)GlcNAc(b1-2)[Gal(b1-4)GlcNAc(b1-6)]Man(a1-6)]Man(b1-4)GlcNAc(b1-4)GlcNAc
Summary of the method: as §1

[15] = target: Gal(b1-4)GlcNAc(b1-2)[Gal(b1-4)GlcNAc(b1-4)]Man(a1-3)[GlcNAc(b1-4)][Gal(b1-4)GlcNAc(b1-2)Man(a1-6)]Man(b1-4)GlcNAc(b1-4)GlcNAc
Summary of the method: as §1

[16] = target: Gal(b1-4)GlcNAc(b1-2)[Gal(b1-4)GlcNAc(b1-4)]Man(a1-3)[GlcNAc(b1-4)][Gal(b1-4)GlcNAc(b1-2)[Gal(b1-4)GlcNAc(b1-6)]Man(a1-6)]Man(b1-4)GlcNAc(b1-4)GlcNAc
Summary of the method: as §1

[17] = target: Gal(b1-4)GlcNAc(b1-2)[Gal(b1-4)GlcNAc(b1-6)]Man(a1-6)[Gal(b1-4)GlcNAc(b1-2)Man(a1-3)]Man(b1-4)GlcNAc(b1-4)GlcNAc
Summary of the method: as §1

[18] = target: Gal(b1-4)GlcNAc(b1-2)[Gal(b1-4)GlcNAc(b1-6)]Man(a1-6)[Gal(b1-4)GlcNAc(b1-2)Man(a1-3)]Man(b1-4)GlcNAc(b1-4)[Fuc(a1-6)]GlcNAc
Summary of the method: as §1

B1: HPL (Tachypleus tridentatus) (protein)
chain: MEDDCTCVTDRSLEGKLMKHPSTPAVYQILDGCRRLVPNPPTYNNIYKNWECIQSNILEKLLCKCDSLSNGAELIKGSGDTVYLLSNGVKRPIADPETFNGFCFDWNKIKTYSDIVINSLSTGPIIIIKHHHHHH
Gal(b1-4)Glc
  glycan array binding signal (z-score): 0.479
Gal(b1-4)Glc6S
  glycan array binding signal (z-score): 0.015
Gal(b1-4)GlcNAc
  glycan array binding signal (z-score): -0.311
[1]
  glycan array binding signal (z-score): -0.342
Gal(b1-4)GlcNAc(b1-2)Man
  glycan array binding signal (z-score): 0.347
[2]
  glycan array binding signal (z-score): 0.037
[3]
  glycan array binding signal (z-score): -0.199
[4]
  glycan array binding signal (z-score): 0.264
[5]
  glycan array binding signal (z-score): -0.344
[6]
  glycan array binding signal (z-score): -0.355
[7]
  glycan array binding signal (z-score): -0.178
[8]
  glycan array binding signal (z-score): -0.083
[9]
  glycan array binding signal (z-score): 0.429
[10]
  glycan array binding signal (z-score): 0.251
[11]
  glycan array binding signal (z-score): 0.08
[12]
  glycan array binding signal (z-score): -0.286
[13]
  glycan array binding signal (z-score): -0.141
[14]
  glycan array binding signal (z-score): -0.393
[15]
  glycan array binding signal (z-score): 5.11
[16]
  glycan array binding signal (z-score): 0.026
[17]
  glycan array binding signal (z-score): 0.308
[18]
  glycan array binding signal (z-score): -0.141
